# Measured values reported in the supplement of paper PMC8728848.
# The list shows a part of the results.
# How the values were obtained:
# Assay in all cases: glycan array binding signal (z-score within array); higher = stronger binding
# Conditions in all cases: glycan notation: IUPAC condensed, linker removed
# [1] = biological target: GlcNAc(b1-2)Gal(b1-3)GalNAc
# Procedure, shortened: (§1)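 The Consortium for Functional Glycomics database supplied 3228 glycan arrays, of which those lacking an available protein sequence were dropped. The binding signal, a within-array Z-score, was averaged across arrays of the same protein sequence and across linkers. Negative scores can be read as non-binding.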
# [2] = biological target: GlcNAc(b1-2)Man(a1-3)[GlcNAc(b1-2)Man(a1-6)]Man(b1-4)GlcNAc(b1-4)GlcNAc
# Procedure, shortened: as §1
# [3] = biological target: GlcNAc(b1-2)Man(a1-3)[GlcNAc(b1-2)Man(a1-6)]Man(b1-4)GlcNAc(b1-4)[Fuc(a1-6)]GlcNAc
# Procedure, shortened: as §1
# [4] = biological target: GlcNAc(b1-2)Man(a1-3)[GlcNAc(b1-4)][GlcNAc(b1-2)Man(a1-6)]Man(b1-4)GlcNAc(b1-4)GlcNAc
# Procedure, shortened: as §1
# [5] = biological target: GlcNAc(b1-2)Man(a1-3)[GlcNAc(b1-4)][GlcNAc(b1-2)Man(a1-6)]Man(b1-4)GlcNAc(b1-4)[Fuc(a1-6)]GlcNAc
# Procedure, shortened: as §1
# [6] = biological target: GlcNAc(b1-2)[GlcNAc(b1-4)]Man(a1-3)[GlcNAc(b1-2)Man(a1-6)]Man(b1-4)GlcNAc(b1-4)GlcNAc
# Procedure, shortened: as §1
# [7] = biological target: GlcNAc(b1-2)[GlcNAc(b1-4)]Man(a1-3)[GlcNAc(b1-4)][GlcNAc(b1-2)Man(a1-6)]Man(b1-4)GlcNAc(b1-4)GlcNAc
# Procedure, shortened: as §1
# [8] = biological target: GlcNAc(b1-2)[GlcNAc(b1-4)]Man(a1-3)[GlcNAc(b1-4)][GlcNAc(b1-2)[GlcNAc(b1-6)]Man(a1-6)]Man(b1-4)GlcNAc(b1-4)GlcNAc
# Procedure, shortened: as §1
# [9] = biological target: GlcNAc(b1-2)[GlcNAc(b1-4)]Man(a1-3)[GlcNAc(b1-4)][GlcNAc(b1-2)[GlcNAc(b1-6)]Man(a1-6)]Man(b1-4)GlcNAc(b1-4)[Fuc(a1-6)]GlcNAc
# Procedure, shortened: as §1
# [10] = biological target: GlcNAc(b1-2)[GlcNAc(b1-6)]Man(a1-6)[GlcNAc(b1-2)Man(a1-3)]Man(b1-4)GlcNAc(b1-4)GlcNAc
# Procedure, shortened: as §1
# [11] = biological target: GlcNAc(b1-2)[GlcNAc(b1-6)]Man(a1-6)[GlcNAc(b1-2)Man(a1-3)]Man(b1-4)GlcNAc(b1-4)[Fuc(a1-6)]GlcNAc
# Procedure, shortened: as §1
# [12] = biological target: GlcNAc(b1-2)[GlcNAc(b1-6)]Man(a1-6)[GlcNAc(b1-4)][GlcNAc(b1-2)Man(a1-3)]Man(b1-4)GlcNAc(b1-4)GlcNAc
# Procedure, shortened: as §1
# GlcNAc(b1-3)Fuc = biological target: GlcNAc(b1-3)Fuc
# Procedure, shortened: as §1
# GlcNAc(b1-3)Gal = biological target: GlcNAc(b1-3)Gal
# Procedure, shortened: as §1
# [13] = biological target: GlcNAc(b1-3)Gal(b1-3)GalNAc
# Procedure, shortened: as §1
# GlcNAc(b1-3)Gal(b1-4)Glc = biological target: GlcNAc(b1-3)Gal(b1-4)Glc
# Procedure, shortened: as §1
# [14] = biological target: GlcNAc(b1-3)Gal(b1-4)GlcNAc
# Procedure, shortened: as §1
# [15] = biological target: GlcNAc(b1-3)Gal(b1-4)GlcNAc(b1-2)Man(a1-3)[GlcNAc(b1-3)Gal(b1-4)GlcNAc(b1-2)Man(a1-6)]Man(b1-4)GlcNAc(b1-4)GlcNAc
# Procedure, shortened: as §1
# [16] = biological target: GlcNAc(b1-3)Gal(b1-4)GlcNAc(b1-2)Man(a1-3)[GlcNAc(b1-3)Gal(b1-4)GlcNAc(b1-2)Man(a1-6)]Man(b1-4)GlcNAc(b1-4)[Fuc(a1-6)]GlcNAc
# Procedure, shortened: as §1
# [17] = biological target: GlcNAc(b1-3)Gal(b1-4)GlcNAc(b1-2)[GlcNAc(b1-3)Gal(b1-4)GlcNAc(b1-6)]Man(a1-6)[GlcNAc(b1-3)Gal(b1-4)GlcNAc(b1-2)Man(a1-3)]Man(b1-4)GlcNAc(b1-4)GlcNAc
# Procedure, shortened: as §1
# [18] = biological target: GlcNAc(b1-3)Gal(b1-4)GlcNAc(b1-3)Gal(b1-4)GlcNAc
# Procedure, shortened: as §1
# [19] = biological target: GlcNAc(b1-3)Gal(b1-4)GlcNAc(b1-3)Gal(b1-4)GlcNAc(b1-2)Man(a1-3)[GlcNAc(b1-3)Gal(b1-4)GlcNAc(b1-3)Gal(b1-4)GlcNAc(b1-2)Man(a1-6)]Man(b1-4)GlcNAc(b1-4)GlcNAc
# Procedure, shortened: as §1
binder,measurement,setting,value
"mCC1-Hexahis-Precomplexed (Mus musculus), P31809 (protein) MELASAHLHKGQVPWGGLLLTASLLASWSPATTAEVTIEAVPPQVAEDNNVLLLVHNLPLALGAFAWYKGNTTAIDKEIARFVPNSNMNFTGQAYSGREIIYSNGSLLFQMITMKDMGVYTLDMTDENYRRTQATVRFHVHPILLKPNITSNNSNPVEGDDSVSLTCDSYTDPDNINYLWSRNGESLSEGDRLKLSEGNRTLTLLNVTRNDTGPYVCETRNPVSVNRSDPFSLNIIYGPDTPIISPSDIYLHPGSNLNLSCHAASNPPAQYFWLINEKPHASSQELFIPNITTNNSGTYTCFVNNSVTGLSRTTVKNITVLEPVTQPFLQVTNTTVKELDSVTLTCLSNDIGANIQWLFNSQSLQLTERMTLSQNNSILRIDPIKREDAGEYQCEISNPVSVRRSNSIKLDIIFDPTQGGLSDGHHHHHH",glycan array binding signal (z-score),[1],-0.283
same,glycan array binding signal (z-score),[2],-0.166
same,glycan array binding signal (z-score),[3],-0.046
same,glycan array binding signal (z-score),[4],-0.285
same,glycan array binding signal (z-score),[5],-0.266
same,glycan array binding signal (z-score),[6],-0.16
same,glycan array binding signal (z-score),[7],-0.219
same,glycan array binding signal (z-score),[8],-0.254
same,glycan array binding signal (z-score),[9],-0.051
same,glycan array binding signal (z-score),[10],-0.249
same,glycan array binding signal (z-score),[11],-0.27
same,glycan array binding signal (z-score),[12],-0.12
same,glycan array binding signal (z-score),GlcNAc(b1-3)Fuc,-0.287
same,glycan array binding signal (z-score),GlcNAc(b1-3)Gal,-0.15
same,glycan array binding signal (z-score),[13],-0.159
same,glycan array binding signal (z-score),GlcNAc(b1-3)Gal(b1-4)Glc,-0.227
same,glycan array binding signal (z-score),[14],-0.246
same,glycan array binding signal (z-score),[15],-0.184
same,glycan array binding signal (z-score),[16],-0.076
same,glycan array binding signal (z-score),[17],0.021
same,glycan array binding signal (z-score),[18],-0.21
same,glycan array binding signal (z-score),[19],2.77
